“And” between values parts separate entries of the source, which are not always exact repeats. Equal values may be shown once.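 All cell lines were grown in 96-well plates and treated with compound for 48 hours. Here, GI50 denotes the concentration required for 50% inhibition of growth. TGI: concentration producing complete growth inhibition.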
Test system: NCI-H322M lung
Test: NCI anticancer screen, dose series, 48 h

Row | Compound | TGI | GI50
1 | O=C(O)CCSC(=O)Nc1ccccc1 | > 100 µM | –
2 | CCCCCCCCCCCCCCCCCCOCC(O)CO (stereo not drawn) | > 25 µM | –
3 | COc1ccc2c(c1)C(=O)c1c-2n(CCCCl)c(=O)c2cc(N)ccc12 | > 100 µM | > 100 µM
4 | CC(C)CC1NC(=O)CCC(NC(=O)C(Cc2ccc(O)cc2)NC(=O)OCc2ccccc2)C(=O)NC(Cc2ccccc2)C(=O)NC(Cc2ccccc2)NC1=O (stereo not drawn) | > 100 µM | –
5 | O=C(Nc1ccc(Cl)cc1)N1CCN(c2ccc3nncn3n2)CC1 | > 100 µM | > 100 µM
6 | CC(=O)/C=C/c1ccc(N(CCO)Cc2ccc(C(C)(C)C)cc2)cc1 | 221 µM | 103 µM
7 | COc1ccc(NC(=O)NNS(=O)(=O)c2ccc(C)cc2)cc1 | > 100 µM | –
8 | COc1ccc(N[C@@H]2c3cc4c(cc3C(c3cc(OC)c(O)c(OC)c3)[C@H]3C(=O)OCC32)OCO4)cc1OC (stereo partly drawn) | > 100 µM | –
9 | COc1cc(OC)nc(-n2c(N)c(C(=O)O)c3ccc([N+](=O)[O-])cc3c2=O)n1 | > 100 µM | –
10 | C=C1C(=O)O[C@H]2[C@H]1CC/C(COC(=O)N[C@H](Cc1c[nH]c3ccccc13)C(=O)OC)=C\CC[C@@]1(C)O[C@@H]21 | 21.4 µM | 9.31 µM
11 | CCOC(OC1=C(C#N)CCCC1)C(CC)[Se]c1ccccc1[N+](=O)[O-] (stereo not drawn) | > 100 µM | –
12 | Cc1cc(S(=O)(=O)NC2=NCC(C)(C)CN2)c(S)cc1Cl | > 100 µM | –
13 | O=C(CCl)Nc1ccc(Cc2ccc(NC(=O)CCl)cc2)cc1 | 5.71 µM | 2.08 µM
14 | CSc1cc(C(C)(C)C)ccc1C(O)c1ccc(C(C)(C)C)cc1SC | 30.9 µM | –
15 | CC1=NNC(=O)C1C1C=C(c2c[nH]c3ccccc23)OC1=O (stereo not drawn) | > 100 µM | –
16 | CC(=O)OC(C)c1cc2c(s1)C(=O)c1ccsc1C2=O (stereo not drawn) | 2.83 µM | –
17 | CC(=N\O)/C(C)=N/O.CC(=N\O)/C(C)=N/O.[Fe].[NH2-].c1c[nH]cn1 | > 100 µM | > 100 µM
18 | CC(C)(C)NC(=S)N/N=C/c1ccccn1 | > 100 µM | –
19 | Cc1ccc2c(c1)C(O)(c1ccccc1)CCS2 (stereo not drawn) | 95.5 µM | –
20 | N/C(=N/S(=O)(=O)c1cc(C(=O)Nc2ccc(F)cc2)c(Cl)cc1SCc1ccccc1)Nc1ccccc1O | 3.47 µM | 1.62 µM
21 | CC[Si](CC)(CC)OC1[C@@H](O[Si](CC)(CC)CC)[C@@H](CNC(=O)NC)O[C@H]1n1cnc2c(NC(=O)Nc3ccccc3)ncnc21 (stereo partly drawn) | > 100 µM | 6.31 µM
22 | Nc1cc(N)c2nc(-c3ccccc3)c(NCc3ccc(Cl)c(Cl)c3)nc2c1 | 30.5 µM | 13.5 µM
23 | COC(=O)[C@H](CCCCNC(=O)OCc1ccccc1)NC(=O)[C@@H](NC(=O)Nc1cc(C(F)(F)F)cc(C(F)(F)F)c1)C(C)C | > 10 µM | > 10 µM
24 | Clc1ccc(N2N=C(c3cccc(Nc4ccncc4)c3)CC2c2ccc(Br)cc2)cc1 (stereo not drawn) | 2.97 µM | 1.58 µM
25 | C=CCN1C(=O)[C@]2(SC1=S)[C@H](c1cccc(Cl)c1)CN(C)[C@]21C(=O)NC2C=CC(Cl)=C[C@H]21 (stereo partly drawn) | 27 µM | 10.4 µM
26 | NC(Cc1c[nH]c2cccc(F)c12)C(=O)O (stereo not drawn) | 2160 µM | 94 µM and 523 µM
27 | Cc1ccc(C2C3Cc4ccccc4C3=NN2c2ccc(S(=O)(=O)NC(=O)Nc3ccccc3)cc2)cc1 (stereo not drawn) | 35.8 µM | 17.6 µM

Row | Compound | TGI | GI50
28 | Cn1c(=O)[nH]c2c(c1=O)C(=O)CN2 | > 100 µM | –
29 | O=S(=O)(CF)OCCCCOS(=O)(=O)CF | > 100 µM | –
30 | OCC1OC(n2cnc3c(NCc4ccco4)ncnc32)C(O)C1O (stereo not drawn) | 64 µM | 0.441 µM
31 | C[Si](C)(C)/C=C/CN1C(=O)CCC1=O | > 100 µM | –
32 | COc1cc(/C=C/c2ccnc3ccccc23)cc(OC)c1OC | 32.5 µM and > 100 µM | –
33 | CN(C)CCNC(=O)c1cccc2c1nc(-c1ccncc1)c1ccccc12 | 18.9 µM | –
34 | CCc1cccc(NC(=O)c2cc(/C=C/c3ccccc3)[nH]c(=S)n2)c1 | > 100 µM | –
35 | COc1ccc(-c2nnc(Nc3nc(O)c(C4=c5cc(Br)ccc5=NC4=O)s3)o2)cc1 | 38.6 µM | 7.06 µM
36 | O=C(CCN1CCCC1)c1ccc(Oc2ccc(F)cc2)cc1 | > 100 µM | –
37 | NS(=O)(=O)c1cc(C(=O)O)c(Cl)c([N+](=O)[O-])c1Cl | > 100 µM | –
38 | Cc1ccc(/C(=C/C=C(C#N)C#N)Sc2nc3ccccc3s2)cc1 | 34.6 µM | 15.8 µM
39 | Cc1nn(-c2ccccc2)c2nc(C)n(-c3ccc(Br)cc3)c(=O)c12 | > 100 µM | 7.12 µM
40 | Nc1no[n+]([O-])c1-c1nnc2c(n1)-c1ccccc1C2=O | 10.6 µM | 3.03 µM
41 | CCC(C)C(=O)OC1CCC=C2C=CC(C)C(CCC3CC(O)CC(=O)O3)C21 (stereo not drawn) | > 100 µM | –
42 | CC(=O)OCC1OC(n2c(O)c(N=NC(N)=S)c3ccc([N+](=O)[O-])cc32)C(OC(C)=O)C1OC(C)=O (stereo not drawn) | 73.5 µM | –
43 | CC(=O)O[C@H]1CC[C@]2(C)C3C(=O)C[C@]4(C)[C@@H](C(C)CCC(=O)O)CC[C@@]4(C)[C@@H]3CC[C@H]2C1(C)C (stereo partly drawn) | > 50 µM | 26.3 µM
44 | O=c1c2ccccc2nc(N/N=C/c2ccc(Cl)cc2)n1-c1ccccc1 | > 100 µM | –
45 | COc1ccc(NC(=O)c2cccc(C3CCc4c(cc(OC)c(OC)c4OC)O3)c2)cc1 (stereo not drawn) | > 100 µM | 6.47 µM
46 | Cn1c(N)c(/C=C/C(=O)Oc2ccccc2)c(=O)n(C)c1=O | > 100 µM | –
47 | CCOC(=O)c1ccc(NC(=O)c2cccc(NC3=C(Cl)C(=O)N(Cc4ccccc4)C3=O)c2)cc1 | > 100 µM | > 100 µM
48 | CC1N=C(c2ccccc2)OC1=O (stereo not drawn) | > 100 µM | –
49 | CC1OC(CC2C=CCc3c(O)c4c(c(O)c32)C(=O)c2ccccc2C4=O)CC(NC(=O)C(F)(F)F)C1O (stereo not drawn) | 24.5 µM | –
50 | Cn1cc(-c2nc(-c3cn(C)c4ncccc34)cs2)c2ccccc21 | 51.5 µM | 2.76 µM
51 | C/C=C(\C)C(=O)O[C@@H]1C=CC(=O)O[C@H]1CNC(=O)[C@H](C)O | 75.4 µM | 28 µM
52 | Cc1ccc(NC(=O)CCC(=O)C2Cc3ccccc3C2=O)cc1C (stereo not drawn) | > 100 µM | –
53 | CC[P+]1(c2ccccc2)CCCCC1 | > 100 µM | –
54 | COc1cc(/C=N/n2c(C)n[nH]c2=O)cc(OC)c1OC | > 100 µM | –
